Laboratory results reported in the supplement of paper PMC9446081.
The whole screen tested about 39,000 compounds, of which about 220 (0.56%) showed activity. This is one part of the list.

tested on: Escherichia coli K-12 BW25113; test: relative growth (OD600 normalised to plate interquartile mean) (fraction); higher = less growth inhibition, active = 0.2 or less; conditions: 50 µM; LB; incubation time: overnight (16-24 h)
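Note: static incubation at 37 °C against the wild-type strain, values averaged over two biological replicates.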

Compound | relative growth
C[C@H]1CN([C@@H](C)CO)C(=O)c2cc(NC(=O)CCN3CCOCC3)ccc2O[C@H]1CN(C)Cc1ccc2c(c1)OCO2 | inactive: 0.973
COc1ccccc1S(=O)(=O)N(C)C[C@@H]1Oc2cc(C#CCC(C)C)ccc2S(=O)(=O)N([C@H](C)CO)C[C@@H]1C | inactive: 1.03
CC(C)NC(=O)Nc1cccc2c1O[C@H](CN(C)S(=O)(=O)c1cn(C)cn1)[C@H](C)CN([C@@H](C)CO)C2=O | inactive: 0.967
C[C@@H]1CN([C@H](C)CO)C(=O)c2cc(NS(=O)(=O)c3ccc(F)cc3)ccc2O[C@@H](C)CCCCO[C@@H]1CN(C)C(=O)Cc1ccccc1 | inactive: 0.939
N=c1ccn2c(n1)O[C@H]1[C@H](O)[C@@H](CO)O[C@H]12 | inactive: 1.03
O=C(C[C@@H]1C=C[C@H](NC(=O)Cc2ccccn2)[C@@H](CO)O1)NCCCN1CCOCC1 | inactive: 1.02
O=C(C[C@@H]1CC[C@@H]2[C@H](COC[C@H](O)CN2S(=O)(=O)c2ccccc2)O1)NCCN1CCCCC1 | inactive: 1.03
CC(C)NC(=O)Nc1cccc2c1O[C@H](CN(C)Cc1ccc(-c3ccccc3)cc1)[C@@H](C)CN([C@H](C)CO)C2=O | inactive: 1.03
Cc1noc(C)c1NC(=O)Nc1ccc2c(c1)C(=O)N([C@@H](C)CO)C[C@@H](C)[C@@H](CN(C)S(=O)(=O)c1ccc(Cl)cc1)OCCCC[C@H](C)O2 | inactive: 0.971
O=C1OCCC/C=C\[C@H]2O[C@@]34C=CCN(c5ccc6ccccc6c5)C(=O)[C@H]3N(CCCO)C(=O)[C@@H]4[C@@H]12 | inactive: 0.979
COc1ccc(S(=O)(=O)Nc2ccc3c(c2)C(=O)N([C@@H](C)CO)C[C@H](C)[C@H](CN(C)S(=O)(=O)c2ccc(Cl)cc2)OCCCC[C@H](C)O3)cc1 | inactive: 1.01
O=C(C[C@@H]1C=C[C@@H](NC(=O)Nc2cc(F)ccc2F)[C@@H](CO)O1)NCCCN1CCOCC1 | inactive: 0.974
CCOc1cc(C)nc(N)n1 | inactive: 0.974
C[C@@H]1CCCCO[C@@H](CN(C)Cc2ccc(Cl)c(Cl)c2)[C@@H](C)CN([C@H](C)CO)C(=O)c2cc(NC(=O)Nc3cccc4ccccc34)ccc2O1 | inactive: 1.04
C[C@@H]1CN([C@H](C)CO)C(=O)c2cc(NC(=O)Nc3ccccc3)ccc2O[C@@H](C)CCCCO[C@H]1CN(C)C(=O)c1ccccc1 | inactive: 1.01
O=C(CO)C(O)C(O)C(O)CO (stereo not given) | inactive: 0.972
COc1ccc(S(=O)(=O)Nc2ccc3c(c2)C(=O)N([C@@H](C)CO)C[C@@H](C)[C@@H](CN(C)CC2CCCCC2)OCCCC[C@H](C)O3)cc1 | inactive: 1.01
C[C@H]1CN([C@@H](C)CO)S(=O)(=O)c2ccc(Br)cc2O[C@@H]1CN(C)CC1CCOCC1 | inactive: 1.04
C[C@@H]1CN([C@@H](C)CO)C(=O)c2cc(NS(=O)(=O)c3ccc(Cl)cc3)ccc2O[C@@H](C)CCCCO[C@H]1CN(C)C(=O)c1ccncc1 | inactive: 1.02
C[C@@H]1CN([C@H](C)CO)C(=O)c2cccc(NC(=O)NC3CCCCC3)c2O[C@H]1CN(C)Cc1ccc(C(F)(F)F)cc1 | inactive: 0.884
COc1ccc(S(=O)(=O)N(C)C[C@@H]2OCCCC[C@@H](C)Oc3ccc(NC(=O)CCCCCC(=O)Nc4ccccc4N)cc3C(=O)N([C@H](C)CO)C[C@@H]2C)cc1 | inactive: 1.01
CC(C)NC(=O)N(C)C[C@@H]1Oc2c(NS(=O)(=O)c3cn(C)cn3)cccc2C(=O)N([C@H](C)CO)C[C@@H]1C | inactive: 1.01

Compound | relative growth
COc1ccccc1CN(C)C[C@@H]1OCc2ccccc2-c2c(n(C)c3ccccc23)C(=O)N([C@H](C)CO)C[C@H]1C | inactive: 1
C[C@@H]1CN([C@@H](C)CO)C(=O)c2cc(NS(C)(=O)=O)ccc2O[C@@H]1CN(C)C(=O)Nc1ccc2c(c1)OCO2 | inactive: 1.02
O=C(C[C@@H]1CC[C@@H](NS(=O)(=O)c2ccc(F)cc2)[C@H](CO)O1)NCc1ccc(Cl)c(Cl)c1 | inactive: 0.986
CC(C)CC#Cc1ccc2c(c1)O[C@@H](CN(C)C(=O)c1ccncc1)[C@@H](C)CN([C@H](C)CO)S2(=O)=O | inactive: 0.968
COc1cccc(CNc2nn[nH]n2)c1OC | inactive: 1
C[C@H](CO)N1C[C@H](C)[C@@H](CN(C)S(=O)(=O)c2cccs2)Oc2ccc(NC(=O)CCN3CCOCC3)cc2C1=O | inactive: 0.981
O=C(NCCN1CCNCC1)c1ccccn1 | inactive: 1.01
NNC(=O)CNC(=O)[C@H]1COc2ccccc2O1 | inactive: 0.935
O=C(Nc1cccc2cccnc12)[C@@H]1[C@H](c2ccc(C(F)(F)F)cc2)CC(=O)N1C(=O)OCc1ccccc1 | inactive: 1.02
CCCNC(=O)N1C[C@]2(CCN(CC2)S(=O)(=O)c2ccc(cc2)OC)c2c(n(c3cc(ccc23)OC)C)[C@@H]1CO | inactive: 1.04
Cc1occc1C(=O)NNC(=O)C1CC1 | inactive: 1.03
CCS(=O)(=O)N1C[C@]2(CN(C2)C(=O)Nc2ccc(cc2F)F)c2c(n(c3cc(ccc23)OC)C)[C@@H]1CO | inactive: 1
Nc1cc(=O)[nH]c(=O)n1Cc1ccccc1 | inactive: 1
COCC(=O)N(C)C[C@H]1Oc2cc(-c3ccc(C#N)cc3)ccc2S(=O)(=O)N([C@@H](C)CO)C[C@H]1C | inactive: 1
O=C(C[C@@H]1CC[C@H]2[C@@H](COC[C@H](O)CN2S(=O)(=O)c2ccc(Cl)cc2)O1)NCCN1CCCC1 | inactive: 1
O=C(C[C@H]1CC[C@H]2[C@@H](COC[C@@H](O)CN2C(=O)Nc2ccc3c(c2)OCO3)O1)N1CCN(c2ccccc2)CC1 | inactive: 1.02
Cn1cnc(S(=O)(=O)N2C[C@H](O)COC[C@@H]3O[C@H](CC(=O)NCc4cccc(F)c4)CC[C@H]32)c1 | inactive: 0.988
Cc1cn([C@H]2C[C@@H](NC(=O)C(C)(C)C)[C@@H](CO)O2)c(=O)[nH]c1=O | inactive: 1.02
COc1ccc(S(=O)(=O)N(C)C[C@@H]2Oc3ccc(NC(=O)C4CC4)cc3CC(=O)N([C@@H](C)CO)C[C@H]2C)cc1 | inactive: 0.999
C[C@@H]1CN([C@H](C)CO)C(=O)Cc2cc(NC(=O)C3CC3)ccc2O[C@@H]1CN(C)C(=O)NC1CCCCC1 | inactive: 0.991
C[C@@H]1CN([C@@H](C)CO)C(=O)c2cccc(NC(=O)C3CCOCC3)c2O[C@H]1CN(C)Cc1ccc(-c2ccccc2)cc1 | inactive: 1.04
COc1ccc(NC(=O)N(C)C[C@H]2Oc3c(NS(C)(=O)=O)cccc3C(=O)N([C@@H](C)CO)C[C@H]2C)cc1 | inactive: 1.01

Compound | relative growth
Cn1c(=O)c2c(nc(S(C)(=O)=O)n2C)n(C)c1=O | inactive: 1
COc1ccc(S(=O)(=O)Nc2ccc3c(c2)C(=O)N([C@@H](C)CO)C[C@H](C)[C@H](CN(C)C(=O)Nc2c(C)noc2C)O3)cc1 | inactive: 0.985
C[C@@H]1CN([C@H](C)CO)C(=O)CCCn2nncc2CO[C@H]1CN(C)S(=O)(=O)c1ccc2c(c1)OCCCO2 | inactive: 1
C[C@H](CO)N1C[C@H](C)[C@@H](CN(C)S(C)(=O)=O)OCCCC[C@H](C)Oc2ccc(NC(=O)Nc3ccc(C(F)(F)F)cc3)cc2C1=O | inactive: 0.998
C[C@@H]1CCCCO[C@H](CN(C)C(=O)C2CCCCC2)[C@@H](C)CN([C@@H](C)CO)C(=O)c2cc(NS(=O)(=O)c3ccc(F)cc3)ccc2O1 | inactive: 1.04
COc1ccc(NC(=O)N(C)C[C@H]2OCCCC[C@H](C)Oc3ccc(NC(=O)Nc4ccc(F)cc4)cc3C(=O)N([C@@H](C)CO)C[C@H]2C)cc1 | inactive: 1.01
Cc1ccc(S(=O)(=O)N(C)C[C@H]2Oc3c(NS(=O)(=O)c4ccccc4)cccc3C(=O)N([C@@H](C)CO)C[C@@H]2C)cc1 | inactive: 0.989
Oc1ccnc(S)n1 | inactive: 1.08
Cc1c(C)c(C)c(CN)c(C)c1C | inactive: 1.02
O=C(Nc1cccc2cccnc12)[C@@H]1[C@H](c2ccc(I)cc2)CC(=O)N1C(=O)OCc1ccccc1 | inactive: 1.03
C[C@@H]1CN([C@H](C)CO)C(=O)c2cc(NC(=O)CCC(F)(F)F)ccc2O[C@@H]1CN(C)S(C)(=O)=O | inactive: 0.993
O=C(C[C@@H]1CC[C@@H]2[C@H](COC[C@H](O)CN2C(=O)c2ccccc2)O1)NCCCN1CCOCC1 | inactive: 1.01
C[C@H]1CN([C@@H](C)CO)C(=O)c2cc(NC(=O)c3ccncc3)ccc2O[C@H]1CN(C)Cc1ccc(Oc2ccccc2)cc1 | inactive: 1
C[C@H](CO)N1C[C@H](C)[C@@H](CN(C)Cc2ccc(Cl)c(Cl)c2)Oc2ccc(NC(=O)Cn3cnnn3)cc2CC1=O | inactive: 0.952
COc1ccccc1[C@@H](NC(=O)C1CCN(CCc2ccc(Br)cc2)CC1)c1ccccn1 | inactive: 0.98
CN1Cc2c(CN3CCCC3=O)nn(C)c2C1 | inactive: 1.01
C[C@@H]1CN([C@H](C)CO)C(=O)c2c(c3ccccc3n2C)-c2ccccc2CO[C@@H]1CN(C)C(=O)[C@H](C)c1ccccc1 | inactive: 1
C[C@H]1CN([C@@H](C)CO)S(=O)(=O)c2ccc(C#CC3CC3)cc2O[C@@H]1CN(C)Cc1cccc(F)c1 | inactive: 1.01
C[C@@H]1CN([C@H](C)CO)C(=O)c2cc(NS(C)(=O)=O)ccc2O[C@@H](C)CCCCO[C@H]1CN(C)S(=O)(=O)c1ccc(F)cc1 | inactive: 1.02
CN1C(=O)OC(C)(C)C1=O | inactive: 0.914
C[C@@H]1CN([C@H](C)CO)C(=O)c2cccc(NC(=O)C3CCCCC3)c2O[C@@H]1CN(C)C(=O)Nc1ccc(C(F)(F)F)cc1 | inactive: 0.905
